The source of these data is PubChem BioAssay AID1346428 (National Center for Advancing Translational Sciences (NCATS), 2018).

Among all 48,000 compounds or so, about 1,200 (2.5%) were called active. About 2% were inconclusive and are not listed.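 How the source made its calls: active means activation of at least 60% and not above a set upper limit (about 1 call in 100 departs from these limits); inconclusive means activation of 40% to 60%, or above that upper limit; inactive means activation under 40%.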 Some of the results follow.

Sequence of UniProt O75388 (O75388 whole entry, looked up, the tested form may be a part): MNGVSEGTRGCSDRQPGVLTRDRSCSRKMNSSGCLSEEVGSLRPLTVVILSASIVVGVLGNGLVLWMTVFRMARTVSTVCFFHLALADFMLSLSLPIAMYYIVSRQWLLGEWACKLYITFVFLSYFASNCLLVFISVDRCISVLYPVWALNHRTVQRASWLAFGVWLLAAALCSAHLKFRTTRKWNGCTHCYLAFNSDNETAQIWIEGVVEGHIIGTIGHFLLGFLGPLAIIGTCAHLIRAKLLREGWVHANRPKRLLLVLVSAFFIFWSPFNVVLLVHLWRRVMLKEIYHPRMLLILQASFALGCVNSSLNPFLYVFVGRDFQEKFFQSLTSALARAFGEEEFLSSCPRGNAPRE

In the test the target is Probable G-protein coupled receptor 32 (Homo sapiens) (UniProt O75388). Kind of test: qHTS for Agonists of Human Resolvin D1 Receptor DRV1. Particulars: CHO-K1 GPR32 beta-arrestin PathHunter luminescence, 90 min; at 76.9 µM; hits give high values; zero percent set by DMSO-only wells. Put shortly:
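PathHunter enzyme-fragment complementation, CHO-K1 GPR32 stable line; 2,500 cells/well, overnight attach; cpd 90 min 37 °C 5% CO2; detection reagent 1 h RT; chemiluminescence. DMSO = EC0.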
Background: In qHTS, concentration-response curves come from the screen itself.
With `COC(=O)c1cc(OC)c(OC)cc1NC(=O)c1ccc2c(c1)CCN2S(=O)(=O)c1ccccc1`, the activation was inactive: -4.05%. In the case of `Fc1ccc(-n2ncc3c(N4CCN(Cc5ccccc5)CC4)ncnc32)cc1`, the activation was inactive: -3.85%. For the compound `CCOc1ccccc1CN1CCc2nc(Nc3ccccc3)ncc2C1`, the activation was inactive: -25%.

As to `Fc1ccccc1C1=NC(c2ccc(C(F)(F)F)cc2)=Nc2ccccc2N1`, the activation is inactive: 4.64%. Then `COc1cc(CN2CCN(S(=O)(=O)c3ccc(F)cc3)CC2)cc(OC)c1OC`, with inactive: -9.64%. With `O=C(NCc1ccccn1)c1nn(-c2ccccc2F)nc1CO`, the activation was inactive: -11.2%. As to `COc1ccc(CCN2C(=O)CN(C3CCCCCC3)C(=O)C2c2ccc(C)cc2)cc1OC` (centres undefined), the activation was inactive: -16.1%. For the compound `COc1cccc(CNC(=O)CCNS(=O)(=O)c2ccc3c(c2)CCCC(=O)N3)c1`, the activation was inactive: 10.5%. Then `CCc1ccc(CNC(=O)c2ccc3c(c2)nc2n3CCCCC2)cc1`, with inactive: -10.1%. In the case of `COc1ccc(OC)c(CCNC(=O)CN2C(=O)COc3ccc(S(=O)(=O)N4CCCCCC4)cc32)c1`, the activation is inactive: -0.0266%.

With `COc1cccc(CNC(=O)CSc2n[nH]c(-c3ccccc3Cl)n2)c1`, the activation was inactive: -9.14%. Then `Cc1ccc(C)c(Cn2cnc3ccccc3c2=O)c1`, with inactive: 15.2%; and `CCc1cccc(NC(=O)CN2c3ccccc3S(=O)(=O)c3ccccc32)c1`, with inactive: -4.69%; and `CC(=O)N1c2ccc(S(=O)(=O)NCCC(=O)Nc3ccc(C)cc3Br)cc2CC1C` (centres undefined), with inactive: 39.4%. On to `O=C(CSc1ccc2nnc(CCNS(=O)(=O)c3ccccc3)n2n1)Nc1ccccc1C(F)(F)F`, for which the activation was inactive: -8.03%. On to `CC1=C(C(=O)Nc2ccccc2)C(c2cccs2)n2nc(SCc3ccccc3)nc2N1` (centres undefined), for which the activation was inactive: 14.6%. Then `O=C(Nc1c2c(nn1-c1ccc(Cl)cc1)CS(=O)(=O)C2)c1cccc(Cl)c1`, with inactive: 8.89%.

For the compound `COc1ccc(OC)c(NC(=O)c2cc3cc4ccc(C)cc4nc3s2)c1`, the activation was inactive: -6.88%.

`Cc1ccc(CNC(=O)Cn2ccn(-c3cc(C)cc(C)c3)c(=O)c2=O)cc1`: the activation is inactive: -12.2%.

For `COc1ccccc1NC(=O)Cn1nc(C)n2cccc2c1=O`, the activation is inactive: -9.62%. As for `O=C(c1ccc(F)cc1)n1nc(-c2ccc(Cl)cc2)nc1NCc1ccco1`, the activation was inactive: -2.5%. As to `CCOc1ccc(-c2cc(NC(=O)Nc3ccccc3C(F)(F)F)c(C(=O)OC)s2)cc1`, the activation is inactive: -3.25%. Take `COC(=O)c1ccc(Cn2c(SCC(=O)Nc3ccc(F)cc3)nc3ccccc32)cc1`: the activation was inactive: 15.5%. For `Cc1ccc(N2CC(C(=O)NCc3nnnn3-c3ccc(C)c(C)c3)CC2=O)cc1` (centres undefined), the activation is inactive: -7.49%.

As for `CCOc1ccc(NC(=O)Cn2c(=O)n(Cc3ccc(C(=O)NCc4ccc5c(c4)OCO5)cc3)c(=O)c3ccccc32)cc1`, the activation was inactive: -0.21%. For `CCCCN(CC)Cc1ccc(CNS(=O)(=O)c2cc3c(cc2Cl)NC(=O)CO3)o1` the value was inactive: -9.81%; for `O=c1cc(N2CCOCC2)oc2c(-c3ccccc3)cccc12`, inactive: -13.8%. Then `CCCCOc1ccc(C(=O)Nc2ccc3c(c2)CCCN3S(=O)(=O)c2ccc(C)cc2)cc1`, with inactive: -1.37%. For `Cc1ccc(-c2nc3c4cnn(-c5cc(Cl)ccc5Cl)c4ncn3n2)cc1`, the activation was inactive: -7.58%. As for `Cc1ccc(CCNC(=O)CCSCc2ccc(Cl)cc2)cc1`, the activation was inactive: -24.2%. Then `COCCCn1c(=N)c(C(=O)NC2CCCC2)cc2c(=O)n3ccccc3nc21`, with inactive: -12.1%; and `CCN(CC)CCNC(=O)c1cc(Br)c(N)cc1OC`, with inactive: -1.58%; and `Cc1ccc(S(=O)(=O)c2nnn3c2nc(Nc2ccc(C(C)C)cc2)c2sccc23)cc1C`, with inactive: -8.3%. On to `CCOc1ccc(-n2c(SCc3nc(-c4ccccc4C)no3)nnc2-c2ccccc2)cc1`, for which the activation is inactive: 0.367%. Consider `CC(C)Cc1nn2c(=O)cc(COC(=O)c3ccccc3NC(=O)c3ccccc3)nc2s1`, for which the activation is inactive: -7.54%. For `CC(=O)Nc1ccc(NC(=O)CN2C(=O)CN(C)C(=O)c3ccccc32)cc1`, the activation is inactive: -12.7%. Then `CCCn1c(=O)c2sccc2n2c(CCCC(=O)NCCOC)nnc12`, with inactive: -8.1%; and `CN(C)c1ccc(CNc2nc(-c3ccco3)nn2C(=O)c2cccc([N+](=O)[O-])c2)cc1`, with inactive: -31.8%. As for `CCc1ccc(-n2c(C)nc3cc(C(=O)NCCc4ccccc4)ccc32)cc1`, the activation is inactive: -18.7%.

As to `CN(C)c1ccc(CN(CC2CCCO2)C(=O)COc2ccc(Cl)cc2)cc1` (centres undefined), the activation is inactive: -28.2%.

For `Cc1cc(O)c(C(c2cccc(Cl)c2)N2CCN(c3ccccc3)CC2)c(=O)n1Cc1ccco1` (centres undefined), the activation is inactive: -17.3%. As to `CC(=O)N1CCCc2cc(S(=O)(=O)N3CCCC(C(=O)NCc4ccc(Cl)cc4)C3)ccc21` (centres undefined), the activation is inactive: 8.18%. Then `COc1cccc(CN2C(=O)c3ccccc3C2C(=O)NCCc2ccc(OC)c(OC)c2)c1` (centres undefined), with inactive: -10.1%. For `COc1ccccc1NC(=O)CSc1ncc2c(n1)-c1cc(Cl)ccc1N(C)S2(=O)=O` the value was inactive: -13.5%; for `CC(C)CC(=O)Nc1ccc(C(=O)OCc2cc(=O)n3nc(C4CCCCC4)sc3n2)cc1`, inactive: -11.6%; for `Cc1nc(N2CCCC2)ncc1C(=O)Nc1ccccc1`, inactive: 33%. For `O=C(Nc1ccc(S(=O)(=O)N2CCC(c3nc4ccccc4s3)CC2)cc1)c1ccccc1F` the value was inactive: -0.171%. For `Cc1cccc(C(=O)Nc2ccc(N3CCC(CCN4CCOCC4)CC3)c(C(=O)O)c2)c1`, the activation was inactive: -8.55%. For `CCN(C(=O)NCc1noc2ccccc12)c1cc(C)ccc1C` the value was inactive: -19.8%; for `CCOc1ccc(CNC(=O)CCn2cccn2)cc1OC`, inactive: 2.24%; for `Cc1ccc2nc(/C(C#N)=C/c3ccc(-c4cccc(Cl)c4)o3)[nH]c2c1`, inactive: 4.35%. Then `CCCCCOc1ccc(C(=O)N(Cc2ccccc2)C2CCS(=O)(=O)C2)cc1` (centres undefined), with inactive: -28.7%. `CCOc1ccc(CCNC(=O)c2cc3c(-c4cccc(OC)c4)nn(C)c3s2)cc1OCC`: the activation is inactive: -7.13%. Regarding `CCOc1ccc(NC(=O)CN2C(=O)C(c3ccccc3)=NC23CCCCCC3)cc1`, the activation is inactive: -30.2%.
